The other results are listed elsewhere or left out.

The test system of this experiment is T1, C. trachomatis L2/434/Bu expressing GFP (CTL2-GFP).
T1 construct: L2/434/Bu GFP intracellular growth in HeLa cells
The arrangement: species or system HeLa; C. trachomatis total inclusion area by high-content imaging, normalised to DMSO. The following applies: total inclusion area; 28.5 h, 10 µM; inhibitor. The procedure, abridged:
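After bulk GFP and resorufin fluorescence reads, cells were fixed, stained with Hoechst and imaged by high-content microscopy. Inclusion area and number (GFP) stood in for chlamydial growth, nuclei count (Hoechst) for host cell viability. MICs were derived as for the bulk readout.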
For `CC(C)c1ccc(CN2CCN(c3nccnc3NS(C)(=O)=O)CC2)cc1` [CBK084271], the “% of control remaining” value is 87.2762. For `O=C(O)CCC1C(=O)CCC1(C(=O)O)c1ccccc1` (stereo not drawn) [CBK287208] the value was 83.525. As for `CC1(C)CC(NC(=O)c2cccc([N+](=O)[O-])c2)CC(C)(C)N1` [CBK262952C], the “% of control remaining” value is given as 101.673.

For `N#Cc1ccc(CN2CCN(S(=O)(=O)c3ccc(-c4ccccc4)cc3)CC2)cc1` [CBK062752], the “% of control remaining” value was determined as 90.1583. For `O=C(Cc1ccsc1)N1CCC(c2cc3cccnc3[nH]2)CC1` [CBK285000] the value was 91.3479. For `CN(C)c1cccc(-c2nc(-c3occc3C=O)cnc2N)c1` [CBK064001] the value was 94.2181; for `O=C(Nc1ccccn1)c1cc(O)c(OCc2ccccc2)cn1` [CBK287989], 101.022. For `Cc1nn(C)c(Cl)c1S(=O)(=O)Nc1nnc(C(F)(F)F)s1` [CBK062003] the value was 101.864; for `CC1=C(C(=O)N2CCOCC2)C(c2ccc(Cl)cc2)NC(=O)N1c1ccc(C(=O)O)cc1` (stereo not drawn) [CBK296999], 88.218. Take `COc1cccc(CNc2nccnc2-c2ccc(S(C)(=O)=O)cc2)c1OC` [CBK037452]: the “% of control remaining” value stood at 80.4873.

Take `CC(C)(C)C1=CC2=NC3(CCOCC3)[C@@H]3C[C@@H](O)[C@@H](O)[C@@H]3N2O1` [CBK303244]: the “% of control remaining” value turned out to be 63.9192. Then `C[C@H]1[C@@H]2[C@@H](O)C([C@H](C)C(=O)NC3CC3)CC[C@@]2(C)CC[C@@H]1NC(=O)C1CC1` (stereo partly drawn) [CBK289442], with 83.1549. For `CCCc1[nH]nc(O)c1CC1CC1` [CBK081129] the value was 88.6398; for `COc1ccc(C2(NCc3ccc4c(c3)n(C)c(=O)n4C)CC2)cc1` [CBK282836], 76.8757.

Turning to `COc1ccc(N(C)C(=O)N[C@@H]2CC[C@@]3(c4ccc(OC)c(OC)c4)CCN(C)[C@H]3C2)cc1` [CBK045653T], the “% of control remaining” value worked out at 48.1541. For `COc1ccc(C(=O)N2CCN(c3ncnc4onc(C)c34)CC2)cc1` [CBK304372] the value was 71.9271; for `COc1ccc(C2N(Cc3ccccc3)CCN2Cc2ccccc2)c(OC)c1OC` [CBK265220], 80.8205; for `O=C1C=C(OCc2ccccc2)CN1` [CBK020360], 43.121. For `O=C(Cc1csc(-c2ccc(F)cc2)n1)Nc1ccc(F)cc1` [CBK295177] the value was 92.7958; for `COc1ccc(CC(=O)N2CCCC2c2nc3ccccc3[nH]2)cc1` (stereo not drawn) [CBK283666], 90.4312; for `COc1ccc(C(=O)CSc2nnc3n(N)cnn23)cc1` [CBK263201], 102.625. On to `Cc1ccc(C(=O)Nc2cccc3cccnc23)cc1Br` [CBK265189], for which the “% of control remaining” value turned out to be 75.7391. For `FC(F)(F)c1ccnc(OCCNc2ccccc2)c1` [CBK115824], the “% of control remaining” value came to 79.373. For `Cc1cc(C)nc(NS(=O)(=O)c2ccc(NC(=O)N3c4ccccc4Sc4ccccc43)cc2)n1` [CBK263922] the value was 26.0898; for `COC(=O)c1ccsc1NS(=O)(=O)c1ccc(NC(C)=O)cc1` [CBK039063], 78.4123. For `CC(C)N(C)CCOc1ncccc1OCCO` [CBK039171] the value was 68.5276; for `COc1ccc(CNC(=O)CC[C@H]2CNC(=O)[C@H]3NCC[C@H]3N2C)cc1` [CBK289025], 78.9483; for `CC(C)(C)NC(=O)Cn1c(-c2cccs2)cc2cccnc21` [CBK282455], 135.354.

With `CCCCNc1nccnc1-c1ccccc1` [CBK088477], the “% of control remaining” value is on record as 88.1353.

Turning to `Clc1nc(NCCN2CCOCC2)nc(N2CCCCCC2)n1` [CBK027412], the “% of control remaining” value was determined as 60.677. Then `FC(F)(F)c1nc2ccccc2nc1SCc1ccccc1` [CBK103732], with 104.807; and `CCOC(=O)C1CC2CCC1C[C@]21NC(=O)c2ccccc2N1` (stereo partly drawn) [CBK284441], with 79.9969; and `O=C(NC(=O)N1CCC2(CC1)NCCc1c2[nH]c2ccc(O)cc12)c1ccccc1` [CBK046936], with 90.6601. For `Cn1cnnc1SCC(C)(C)NS(=O)(=O)c1ccccc1` [CBK268276] the value was 90.0434. In the case of `CCc1nnc(NCC2CCCCC2)s1` [CBK075044], the “% of control remaining” value is on record as 80.5911. On to `Cc1nn2c3ccccc3nc2n1CCN1CCCCC1` [CBK278256C], for which the “% of control remaining” value is 85.8595. Then `COc1ccc(CN2CCN(Cc3ccccc3[N+](=O)[O-])CC2)c(OC)c1` [CBK263340], with 89.6506. For `C[S+]([O-])c1ccc(-c2ccc(CN(C3CC3)C3CCN(c4ncccn4)CC3)cn2)cc1` (stereo not drawn) [CBK172877] the value was 95.3038. Take `Cc1nn(Cc2ccc(C(=O)Nc3c(C)nn(Cc4ccc(Cl)c(Cl)c4)c3C)o2)c(C)c1Br` [CBK265855]: the “% of control remaining” value came out at 73.1608. For `Nc1nc(OCCOc2ccccc2)cnc1-c1ccsc1` [CBK145163] the value was 97.1772; for `Cc1ccc(C(=O)Nc2nc3ccc4nc(C)sc4c3s2)cc1` [CBK287305], 77.8773; for `Cc1ccc2c(c1)nc(CNC(=O)NC1CCCc3cn[nH]c31)n2C` (stereo not drawn) [CBK305554], 61.3727. For `Nc1cc2ccccc2c(-c2cc(F)cc(F)c2)n1` [CBK085711], the “% of control remaining” value amounted to 97.2865.

In the case of `O=C(O)c1csc(S(=O)(=O)Nc2ccc(Br)cc2Cl)c1` [CBK297731], the “% of control remaining” value came out at 49.7155. Then `CC1(C)CC(NC(=O)CCc2cc(C(C)(C)C)c(O)c(C(C)(C)C)c2)CC(C)(C)N1` [CBK261986], with 77.1999; and `COc1ccc(C(=O)N[C@H]2CO[C@H]3[C@@H]2OC[C@H]3OC(=O)Nc2ccccc2)cc1` [CBK289463], with 107.623; and `CCOC(=O)c1c(-c2ccccc2)csc1NS(=O)(=O)c1ccc(C)cc1` [CBK015841], with 105.43.

Regarding `COc1ccc(C(=O)Nc2cc3ccccc3c(N3CCNCC3)n2)cc1` [CBK036344T], the “% of control remaining” value came out at 64.6195.

As to `CCOc1ccc(-c2ccnc(C)n2)cc1C(=O)O` [CBK306505], the “% of control remaining” value was 105.642. For `COc1ncc(-c2cccc(NCC(c3cccnc3)N(C)C)n2)c(OC)n1` (stereo not drawn) [CBK037723], the “% of control remaining” value is listed as 104.527. Then `Clc1ccc(COc2cccc(CNCCN3CCOCC3)c2)cc1` [CBK278227C], with 77.5636; and `C=CCn1c(Cc2csc(NC(=O)c3cnc(SC)n3-c3ccccc3)n2)n[nH]c1=S` [CBK297786], with 79.3696; and `Cn1cccc1C(=O)N[C@H]1CCN2C(=O)N(c3ccc(OC(F)(F)F)cc3)C(=O)[C@@H]2C1` [CBK289548], with 113.191. On to `CN(Cc1nc2c(s1)CCCC2)C(=O)c1ccc2[nH]cnc2c1` [CBK304138], for which the “% of control remaining” value is 74.2601. Then `Cc1ccc2[nH]c(Cc3ccc(NC(=O)c4cccc5c(=O)cc(C)[nH]c45)cc3)nc2c1` [CBK285814], with 104.259; and `Cc1cccnc1NC(=O)c1cccc(C(=O)Nc2ncccc2C)c1` [CBK262184], with 97.1791; and `COc1ccc(-c2c[n+]3ccccc3c(=O)[nH]2)cc1` [CBK011078B], with 123.224. Then `Cc1cc(CSc2ccccc2)ccc1NC(=O)/C=C/c1cccc([N+](=O)[O-])c1` [CBK264687], with 94.1005; and `CCc1ccc(C(=O)NC(Cc2c[nH]c3ccccc23)C(=O)O)cc1` (stereo not drawn) [CBK269556], with 86.5207.

With `COc1ccccc1-c1ncc(OCC(F)(F)F)nc1NC(=O)C1CC1` [CBK145275], the “% of control remaining” value was 106.812. Turning to `C=CCOC(=O)N1CCC(C(=O)N(C)C(c2cccc(OC)c2)c2ccccn2)CC1` (stereo not drawn) [CBK060244], the “% of control remaining” value is listed as 83.9906. For `CN1CCN(c2ccc(-c3cccc(N(C)C)c3)cn2)CC1` [CBK037621] the value was 110.012; for `O=C(CCn1c(C(F)(F)F)cc2cccnc21)NCc1cccnc1` [CBK284865], 82.0229; for `CC(=O)NCCC(CN1CCOCC1)([N+](=O)[O-])[N+](=O)[O-]` [CBK261338], 99.3333.

For `O=C(c1ccccc1)N1C[C@@H](c2ccsc2)[C@@H]2CN(Cc3ccc(Cl)cc3)CC[C@@H]21` [CBK285615], the “% of control remaining” value worked out at 50.8439. For `O=C(CN(c1cc(Cl)ccc1Cl)S(=O)(=O)c1ccccc1)Nc1cccnc1` [CBK268708], the “% of control remaining” value came out at 75.3349. For `CC[C@H]1CCCCN1C(=O)c1sc2nc(C(C)=O)ccc2c1Cl` [CBK091046] the value was 70.7906. Then `Nc1ncc(-c2cccc(O)c2)nc1-c1ccc(CCC(=O)O)cc1` [CBK064135], with 82.0808; and `O=C(NCc1ccco1)c1nccnc1-c1ccc(COc2ccc3c(c2)CCCC3)cc1` [CBK050851], with 116.365.

Regarding `O=C(c1ccsc1)N1CCC2(CC1)CN(Cc1ccccc1)CC(c1ccccc1)O2` (stereo not drawn) [CBK286438], the “% of control remaining” value is recorded as 60.2427. Take `CC(=O)Nc1ccc(S(=O)(=O)Nc2ccc(S(=O)(=O)Nc3cc(C)ccc3C)cc2)cc1` [CBK264745]: the “% of control remaining” value is listed as 117.699. `COC(=O)c1ccc(Cn2cc(NC(=O)NCCc3cccs3)cn2)o1` [CBK043825]: the “% of control remaining” value is given as 88.6524. As for `CCCNC(=O)N1CCC(n2c(C)nc3cccnc32)CC1` [CBK282292], the “% of control remaining” value is on record as 92.1778. As for `O=C(CN1CCC(O)(Cn2cnc3ccccc32)CC1)c1ccc(-c2ccccc2)cc1` [CBK286306], the “% of control remaining” value came out at 115.264. For `S=C(NCc1ccc(-n2cccn2)cc1)NCC1CCCO1` (stereo not drawn) [CBK267083] the value was 95.1515; for `O=S(=O)(Nc1ccc(C(O)(C(F)(F)F)C(F)(F)F)cc1)c1cccc2cccnc12` [CBK062092], 86.1885; for `COc1ccc2[nH]cc(C3CCN(Cc4cc(C)no4)CC3)c2c1` [CBK303996], 69.493. Take `Cc1cc(O)nc(SCCCSc2ccccc2)n1` [CBK267415]: the “% of control remaining” value was determined as 98.5244.

(Values after publication PMC12040169 (PLOS Biology, 2025).)
